Source: the supplement of paper PMC3334620
Whole data set: some 33,000 sequences, median “E-score (-0.5 to 0.5)” near -0.021, cut for the highest 2% near 0.32. Some of the results follow.

Biological target: T1, Zap1 (UniProt P47043)
T1 sequence: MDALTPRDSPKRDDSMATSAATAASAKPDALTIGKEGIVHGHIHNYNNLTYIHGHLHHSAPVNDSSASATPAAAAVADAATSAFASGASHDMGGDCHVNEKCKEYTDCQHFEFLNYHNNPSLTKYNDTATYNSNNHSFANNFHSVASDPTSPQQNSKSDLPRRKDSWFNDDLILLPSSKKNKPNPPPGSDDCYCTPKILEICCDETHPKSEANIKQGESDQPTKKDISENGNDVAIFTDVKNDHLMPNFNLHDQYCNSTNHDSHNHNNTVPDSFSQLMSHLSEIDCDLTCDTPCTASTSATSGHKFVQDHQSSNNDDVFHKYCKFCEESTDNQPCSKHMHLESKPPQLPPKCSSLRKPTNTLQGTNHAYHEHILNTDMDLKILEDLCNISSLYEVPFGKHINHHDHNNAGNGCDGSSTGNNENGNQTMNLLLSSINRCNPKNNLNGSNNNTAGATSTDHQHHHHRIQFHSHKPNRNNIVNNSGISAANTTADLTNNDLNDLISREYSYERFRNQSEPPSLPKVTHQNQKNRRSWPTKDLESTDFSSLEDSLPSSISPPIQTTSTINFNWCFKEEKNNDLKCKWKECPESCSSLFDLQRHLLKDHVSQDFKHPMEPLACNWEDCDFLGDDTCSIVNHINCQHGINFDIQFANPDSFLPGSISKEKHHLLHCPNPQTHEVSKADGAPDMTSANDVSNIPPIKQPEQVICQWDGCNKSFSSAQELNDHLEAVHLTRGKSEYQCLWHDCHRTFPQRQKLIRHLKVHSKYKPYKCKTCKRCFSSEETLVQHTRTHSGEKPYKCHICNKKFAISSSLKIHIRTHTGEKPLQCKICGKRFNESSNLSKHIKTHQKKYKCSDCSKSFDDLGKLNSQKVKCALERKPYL
Assay: PBM E-score (8-mer binding enrichment) (E-score (-0.5 to 0.5)); higher = stronger / more preferred TF binding; most listed sequences are background and not binding sites
Conditions: protein concentration: 200 nM; construct: GST-full length
Summary of the method: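 Full-length yeast transcription factors or their DNA-binding domains, GST-tagged and expressed with PURExpress, were applied at about 100-200 nM to universal all-10-mer Agilent arrays. These arrays had been made double-stranded by primer extension on fresh or once-stripped slides. Detection used fluorescent anti-GST, normalisation used masliner, and E-scores for ungapped eight-base words pooled with reverse complements came from the Universal PBM Analysis Suite.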

| Sequence | PBM E-score |
| --- | --- |
| TGGCTTAA | -0.0302 |
| AAGGTTCA | 0.054 |
| TCGCTAGA | -0.0403 |
| AAGAGTAT | -0.126 |
| AGCACAGC | -0.105 |
| TTGGCCAA | -0.34 |
| AGGCCGAC | -0.0767 |
| CAAATCCC | -0.127 |
| CTGTCCGA | 0.0685 |
| CATATCCA | -0.0473 |
| CACAAGAC | -0.0866 |
| AACAGGCT | -0.274 |
| ATGGATCA | -0.0007 |
| AAGCCTGG | -0.149 |
| CCTGTGGC | -0.108 |
| AGTTTTAA | 0.19 |
| AGGCTACG | -0.18 |
| ACCGAACG | 0.0729 |
| GCGCGAAA | 0.108 |
| GTAAAAAC | 0.133 |
| GCTCGGAA | 0.00496 |
| GCTCCCTA | -0.279 |

| Sequence | PBM E-score |
| --- | --- |
| CCTAAACG | 0.0765 |
| AGCTGTGG | -0.196 |
| GACTTCGC | 0.111 |
| CTGTTTGA | 0.0708 |
| CGCTGTTC | -0.112 |
| AATGTAGG | 0.0567 |
| AGTCCCTG | -0.154 |
| CCCTAGAC | -0.0103 |
| AGCGGGTG | 0.0727 |
| GCAAGGGA | -0.216 |
| ATATTATC | -0.0253 |
| ACCTTCAC | 0.243 |
| GATTACAC | 0.123 |
| AGTCGCTA | -0.0231 |
| CATAGCCA | -0.0377 |
| CTAGGCCC | -0.291 |
| GTGGGACA | -0.0823 |
| CAAGTCCC | -0.135 |
| CACTGAAA | 0.109 |
| GACCGTAC | -0.11 |
| ATCCTATA | 0.0245 |
| ATGTCCAC | 0.00035 |

| Sequence | PBM E-score |
| --- | --- |
| CGATAATC | -0.0951 |
| ACGTCACC | 0.0378 |
| AAATCAAC | 0.0373 |
| CTCGCTCC | -0.122 |
| ACACCAGG | -0.0659 |
| AGGTATTC | 0.116 |
| AATACGCA | -0.0665 |
| ACGCGGGC | -0.215 |
| AGCGAGCA | -0.159 |
| GTCGCCTA | -0.0377 |
| CCACGGAC | -0.0588 |
| CGAGCCAA | -0.189 |
| ATATACTA | 0.159 |
| CAGAGCGG | -0.198 |
| AGTTGTTG | 0.0292 |
| CCTGCCTA | -0.186 |
| CCCGTGTA | -0.149 |
| AAGAAACG | 0.0819 |
| TCAGTCGA | -0.0139 |
| CCTGAGAA | 0.0612 |
| GGATCCGA | -0.319 |
| GGCTACCC | 0.132 |

| Sequence | PBM E-score |
| --- | --- |
| GACATGTC | -0.275 |
| GTTATGCA | 0.155 |
| ATTATCTA | 0.013 |
| ACCCGGAC | 0.137 |
| AAAAAACA | 0.247 |
| GAAGGCGA | -0.269 |
| ATCATACC | 0.243 |
| CGTAACTA | 0.0577 |
| AAAAGAGC | -0.026 |
| AGTATATC | -0.106 |
| ATCGACAT | 0.00312 |
| CGGTTTTC | 0.139 |
| ATGTAGGA | 0.0775 |
| CGTTCGGC | -0.27 |
| GCTGCACC | -0.15 |
| CGCATTAC | 0.0167 |
| AGAGCTTA | 0.0111 |
| ATCTCATA | 0.00164 |
| CTACCATC | -0.00011 |
| GAGGCCGC | -0.0103 |
